Reference: the RNAGym collection of RNA variant scans (doi:10.7554/elife.90254)
The source gives no read counts; variants with many changes may rest on few reads.

B1: LINE1-mini (parent)
chain: GGCAGAGCUCAACACAGCGUGGCAAAGUGGCUGUGGCUAGACUGCC

Variants of: B1
Experiment: self-cleavage, relative activity (ratio to wild type); higher = more cleavage; in vitro, sequencing; the parent is a self-cleaving ribozyme

| Variant | self-cleavage |
| --- | --- |
| GGCAGAGAUCUACACAGCGUGCCUAAGUGGCUGUGGCUAGACUGCC [C8A A11U G22C A24U] | 0.01 |
| GGCAGAGAUCAUCACAGCGUGAGAACGUGGCUGUGGCUAGACUGCC [C8A A12U G22A C23G A26C] | 0.17 |
| GGCAGAGAUCAACACAGCGUGGCACUGUGGCUAUGGCUAGACUGCA [C8A A25C A26U G33A C46A] | 0.17 |
| GGCAGAGAUCAACACGGCGUGGCAAGAUGGCUGUGCCUACACUGCC [C8A A16G A26G G27A G36C G40C] | 0.05 |
| GGCAGAGAUUAACACAGCGUGGAAAAGUGGCUGUGGCUAUACUGCC [C8A C10U C23A G40U] | 0.03 |
| GGCAGAGAUCAACACGGCGUGGCAAAGUGGCUGUGGCAAGACUGCC [C8A A16G U38A] | 0.13 |
| GGCAGAGAUCAACACUGCGUGGCGAAGUGGCGGUGGCUAUACUGCC [C8A A16U A24G U32G G40U] | 0.01 |
| GGCAGAGAUAAACACAGCGUGGCAAAGUGGCUGUGGAUAGACUGCC [C8A C10A C37A] | 0.05 |
| GGCAGAGAUCAAAACCGCGUGGCAAAGUGGCUGUGGCUAGACUGCC [C8A C13A A16C] | 0.43 |
| GGCAGAGAUCAACAUAGCGUGGCCAAGUGGCUGUGGCUUGACUGCC [C8A C15U A24C A39U] | 0.26 |
| GGCAGAUCUCAACACAGCGUGGCAAAGUGGCUGUGGCAAGAAUGCC [G7U U38A C42A] | 0.02 |
| GGCAGAGAUCAACACCGCGUGGCAAAGUGGCAGUGGCCAGAAUGCC [C8A A16C U32A U38C C42A] | 0.01 |
| GGCAGAGAUCAACACUGCGUGGCAAAGUGGUUGUAGCUAGACUGUC [C8A A16U C31U G35A C45U] | 0.1 |
| GGCAGAGAUCAACCCAGCGUGGCAAGGUGGUUGUGGCUAGACUGCC [C8A A14C A26G C31U] | 0.04 |
| GGCAGAGAUCAACACAGGAUGGCAAAGUGGCUGUGGCUAGACUGCC [C8A C18G G19A] | 0.05 |
| GGCAGAGAUCAACCCUGCGUGGCAAAGUGGCUGUGGCUAGACUGCC [C8A A14C A16U] | 0.18 |
| GGCAGAGAUAAACACAGCGUAGCAAAAUGGCUGUGGCUAGAUUGCC [C8A C10A G21A G27A C42U] | 0 |
| GGCAGAGAUCAACACCGCGUCGCAAAGUGGCUGUGGCUAGACUGCC [C8A A16C G21C] | 0.06 |
| GGCAGAUCUCAACACAGCGUGGCAAAGUGGCUGUGGCAAGGCUGCC [G7U U38A A41G] | 0.03 |

| Variant | self-cleavage |
| --- | --- |
| GGCAGAGAUCAACUGUGCGUGGCAAAGUGGCUGAGGCUGGACUGCA [C8A A14U C15G A16U U34A A39G C46A] | 0.06 |
| GGCAGAGAUAAACACAGCGUGGCAAAGUGGAUGUGGCUAGACUGCU [C8A C10A C31A C46U] | 0.02 |
| GGCAGAGAUCAAGACAGCGUGGCAAAGUGGUUGUGGCUAGACUGCC [C8A C13G C31U] | 0.28 |
| GGCAGAGAUCAACAGAGCGUGGCAAAGUGGAUGUGCCUAGACUGCC [C8A C15G C31A G36C] | 0.91 |
| GGCAGAGAUCUUCACAGCGUGGCAAAGUGGCUGUGGCUAGUCUGCC [C8A A11U A12U A41U] | 0.03 |
| GGCAGAGAUCCACACAGCGACGCAAAGUGGCUGUCGCUAGACUGCC [C8A A11C U20A G21C G35C] | 0.01 |
| GGCAGAGAUUAACACUGCGUGGCAAAGUGGCUGUGGCUAGACUGCC [C8A C10U A16U] | 0.05 |
| GGCAGAGAUAAAAACAUCGUGGCAAAGUGGCUUUGGCUAGACUGCC [C8A C10A C13A G17U G33U] | 0 |
| GGCAGAGAUCAACACGGCGCGGCAAAGUGGCUGUGGCUAGACAGCC [C8A A16G U20C U43A] | 0.11 |
| GGCAGAGAUCAACGCAGCGUGGCAAAGUGGCUGUGGCUAAACUGCC [C8A A14G G40A] | 0.11 |
| GGCAGAGAUCAUGACAGCGUGGCAAAGUGGCUGUAGAUAUACUGAC [C8A A12U C13G G35A C37A G40U C45A] | 0.08 |
| GGCAGAGAUCAACACAGCGUGGCAUAGUGGCUGUGGCUAAACUGCC [C8A A25U G40A] | 0.02 |
| GGCAGAGAUCAACAGAGCGUGGCAAUGUGGCUGUGGCUAGACUGCC [C8A C15G A26U] | 0.05 |
| GGCAGAGAUCAAAACUGCGUGGUAAAGUGGCUGUGGCUAGAGUGCC [C8A C13A A16U C23U C42G] | 0.11 |
| GGCAGAGAUCAACAAAGCGUGGCUAAGUGGCUGUGGCUAGACUGCC [C8A C15A A24U] | 0.11 |
| GGCAGAGAUCAUCACAGCGUGGCAAAGUGACUCUGGCUAGACUGCC [C8A A12U G30A G33C] | 0.01 |
| GGCAGAGAUCAACAUCGCGUGGCAAAGUGGCUGUGGCUAGACUGCC [C8A C15U A16C] | 0.14 |
| GGCAGAGAUCAACACCGCGUGUCAAAGUGGCUGUGGCUAGACUGCC [C8A A16C G22U] | 0.07 |
| GGCAGAGAUCAACACAGGGUGGCACAGUGGCUGUGGCUAGACUGCC [C8A C18G A25C] | 0.15 |

| Variant | self-cleavage |
| --- | --- |
| GGCAGAGAUCAAGAAAGCUUGGCAGAGUGGCUAUGGCUAGACUGCC [C8A C13G C15A G19U A25G G33A] | 0.29 |
| GGCAGAGAUCACCCCAGCGUGGCAAAGUGGCUGUGGCUAGACUGCC [C8A A12C A14C] | 0.02 |
| GGCAGAGAUCAACACAGAGUGGCAAAGUGGCUCUGGCUAGACUGCC [C8A C18A G33C] | 0.11 |
| GGCAGAGAUCAAAACAGCGUGGCAAAGUUGCUGUGGCUAGACAGCC [C8A C13A G29U U43A] | 0.18 |
| GGCAGAGAUUAACACAUCGUGGCAAAGUGGGGGUGGCUAGACUGCA [C8A C10U G17U C31G U32G C46A] | 0.08 |
| GGCAGAGAUCAACACAGCGUGGCAUAGUGGCUGUGACUAGGCUGCC [C8A A25U G36A A41G] | 0.97 |
| GGCAGAGAUCAUCACAGCGUGGCAAAGUUGCUGUGGCUAGCCUGCC [C8A A12U G29U A41C] | 0.56 |
| GGCAGAGAUCAACUCAGCGUGGCAAAGUGGCUGUGGCUAUACUGCC [C8A A14U G40U] | 0.08 |
| GGCAGAGAUCAACAAAGCGUGGCAAAGUGGCUGUGGCUAGACAGCC [C8A C15A U43A] | 0.54 |
| GGCAGAGAUCAACUCAGCGUGGCAAAGUGGCUGUGGCUAGUCUGCC [C8A A14U A41U] | 0.07 |
| GGCAGAGAUAAACACAGCGUGGCAGAGUGGCUGUGGCUAGACUGCC [C8A C10A A25G] | 0.14 |
| GGCAGAGAUCGACACAGCGUGGCAACGUGGCUGUGGCUAGACUGCC [C8A A11G A26C] | 0.01 |
| GGCAGAGAUCAACAUAGCGUGGCAAGGUGGCUGUGGCUAGACUGUC [C8A C15U A26G C45U] | 0.45 |
| GGCAGAGAUCAAGACAGCGUGGCAAAGUUGCUGUGGCUAGGCUGCC [C8A C13G G29U A41G] | 0.3 |
| GGCAGAGAUAAAAACAGCGUGGUAAAGUGGCUGUGGCUAGACUGCC [C8A C10A C13A C23U] | 0.03 |
| GGCAGAGAUGAACACCGCGUGGCAAAGUUGCUGUGGCUACACUGCC [C8A C10G A16C G29U G40C] | 0.03 |
| GGCAGAGAUUAACACAGCGUGGCAAAGUGGGUGUGGCAAGCUUGCC [C8A C10U C31G U38A A41C C42U] | 0.03 |
| GGCAGAGAUCAACACAGCGUGGCAAGGUGGCUGUGGCUAGGCUGCC [C8A A26G A41G] | 0.14 |
